This test addresses Nonstructural protein 3 (Zika virus) (UniProt A0A024AXB9).
The mark [1] stands for this setting: PRVABC59, Concentration 15.0 uM, Number of replicates 1.0.
[2] abbreviates: PRVABC59, Concentration 50.0 uM, Number of replicates 1.0.

This passage reports inhibition results from ChEMBL document CHEMBL5606458, “ASAP - ZIKV NS2B-NS3 protease fluorescence single point” (2024).

SMILES strings stand for the structures. Hit rate of the full screen: of about 2,700 compounds, about 160 (5.9%) showed an effect of 50% or more. The list shows a part of the results.

Sequence of UniProt A0A024AXB9 (A0A024AXB9 as listed by the source): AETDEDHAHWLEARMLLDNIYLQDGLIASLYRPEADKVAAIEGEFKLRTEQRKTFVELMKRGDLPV

On to `COc1ccc(C[C@H]2c3cc(OC)c(OC)cc3CCN2C(=O)c2cc(Cl)ccc2NS(=O)(=O)c2ccc(Oc3ccccc3Cl)cc2)cc1OC`, for which, under setting [1], the inhibition was 26.2%.

Take `O=Cc1ccc(N2CCC(C(=O)Nc3ccncc3Br)CC2)cc1`: under setting [2], the inhibition amounted to 20.5%.

As to `O=Cc1ccc(N2CCC(C(=O)N3CCCC[C@@H]3Cc3ccccc3)CC2)cc1`, the inhibition under setting [2] turned out to be 27.1%.

On to `O=Cc1ccc(N2CCC(C(=O)NCCCN3CCS(=O)(=O)CC3)CC2)cc1`, for which, under setting [2], the inhibition was 26.6%.

In the case of `CC(C)(CO)NC(=O)c1cc(Cl)cc(NC(=O)CCNc2cc(Cl)cc(Cl)c2)c1`, the inhibition (PRVABC59, Concentration 49.5 uM, Number of replicates 2.0, Standard deviation 3.1830122701910106 %) was determined as 8.57%; the inhibition (PRVABC59, Concentration 99.01 uM, Number of replicates 2.0, Standard deviation 2.527205284312771 %) turned out to be 8.93%; the inhibition (PRVABC59, Concentration 198.0 uM, Number of replicates 2.0, Standard deviation 2.537420668867447 %) amounted to 6%.

Regarding `COc1cc(Cl)c(C)cc1NC(=O)C1CCN(c2ccc(C=O)cc2)CC1`, under setting [2], the inhibition stood at 25.3%.

For the compound `O=C(c1cc(Cl)ccc1NS(=O)(=O)c1ccc(Oc2ccccc2Cl)cc1)N1CCO[C@@H](c2ccccc2)C1`, under setting [1], the inhibition is 14.5%.

With `O=Cc1ccc(N2CCC(C(=O)NC[C@H](c3cccnc3)N3CCOCC3)CC2)cc1`, the inhibition under setting [2] was 22.7%.

For the compound `CNC(=O)c1cc(Cl)ccc1NC(=O)CCNC(=O)c1cccc(Cl)c1`, the inhibition by setting is: (PRVABC59, Concentration 49.5 uM, Number of replicates 2.0, Standard deviation 1.8121513776647062 %) -0.55%; (PRVABC59, Concentration 99.01 uM, Number of replicates 2.0, Standard deviation 2.907205611612388 %) 1.16%; (PRVABC59, Concentration 198.0 uM, Number of replicates 2.0, Standard deviation 3.029786390905291 %) 4.5%.

Regarding `O=Cc1ccc(N2CCC(C(=O)N3CCN(C(=O)c4ccccc4Cl)CC3)CC2)cc1`, the inhibition under setting [2] was found to be 24.6%.

With `CN(C)CCN(Cc1ccccc1)C(=O)c1cc(Cl)ccc1NS(=O)(=O)c1ccc(Oc2ccccc2Cl)cc1`, the inhibition under setting [1] amounted to 15.1%.

Regarding `O=Cc1ccc(N2CCC(C(=O)Nc3ccc(C(F)(F)F)cc3)CC2)cc1`, under setting [2], the inhibition worked out at 24.6%.

As for `O=C(c1cc(Cl)ccc1NS(=O)(=O)c1ccc(Oc2ccccc2Cl)cc1)N1CCN(C/C=C/c2ccccc2)CC1`, the inhibition under setting [1] turned out to be 11.5%.

For the compound `O=C(Nc1ccc([N+](=O)[O-])c2ccccc12)c1cc(Cl)ccc1NS(=O)(=O)c1ccc(Oc2ccccc2Cl)cc1`, under setting [1], the inhibition is 22.7%.

Turning to `C#CCN(Cc1ccc(C)cc1)C(=O)c1cc(Cl)ccc1NS(=O)(=O)c1ccc(Oc2ccccc2Cl)cc1`, under setting [1], the inhibition was 26%.

As to `O=C(c1cc(Cl)ccc1NS(=O)(=O)c1ccc(Oc2ccccc2Cl)cc1)N1CCCC[C@H]1C(F)(F)F`, the inhibition under setting [1] was 22.3%.

Consider `O=C(c1cc(Cl)ccc1NS(=O)(=O)c1ccc(Oc2ccccc2Cl)cc1)N1CCN(C(=O)N2CCCCC2)CC1`, for which the inhibition under setting [1] is 2.28%.

Consider `O=C(c1cc(Cl)ccc1NS(=O)(=O)c1ccc(Oc2ccccc2Cl)cc1)N1CCN(CCc2ccncc2)CC1`, for which the inhibition under setting [1] amounted to 6.55%.

Turning to `c1cnc(N2CCOCC2)c(CN2CCC(c3c[nH]c4cccnc34)CC2)c1`, the inhibition by setting is: (PRVABC59, Concentration 49.5 uM, Number of replicates 2.0, Standard deviation 3.054703307448636 %) -2.07%; (PRVABC59, Concentration 99.01 uM, Number of replicates 2.0, Standard deviation 3.2076979533183563 %) -1.91%; (PRVABC59, Concentration 198.0 uM, Number of replicates 2.0, Standard deviation 3.2803054039927106 %) -0.506%.

As for `CNC(=O)c1cn(C[C@H]2CCCN2C(=O)c2cccc3ncsc23)nn1`, the inhibition reads like this: (PRVABC59, Concentration 49.5 uM, Number of replicates 2.0, Standard deviation 0.4404705814208952 %) -0.654%; (PRVABC59, Concentration 99.01 uM, Number of replicates 2.0, Standard deviation 0.04041014547115413 %) -1.78%; (PRVABC59, Concentration 198.0 uM, Number of replicates 2.0, Standard deviation 0.19194812776770936 %) -2.01%.

Consider `CC(C)Sc1ccccc1NC(=O)c1cc(Cl)ccc1NS(=O)(=O)c1ccc(Oc2ccccc2Cl)cc1`, for which the inhibition under setting [1] was 28.1%.

In the case of `O=Cc1ccc(N2CCC(C(=O)NCC(=O)c3ccc([N+](=O)[O-])cc3)CC2)cc1`, under setting [2], the inhibition worked out at 35.1%.

Take `CCN(C(=O)c1cc(Cl)ccc1NS(=O)(=O)c1ccc(Oc2ccccc2Cl)cc1)C1C2CC3CC(C2)CC1C3` (stereo not given): under setting [1], the inhibition stood at 18.8%.

Regarding `CN1CCCC[C@@H](CNCc2nnc3ccccn23)C1=O`, the inhibition was -4.42% (PRVABC59, Concentration 49.5 uM, Number of replicates 2.0, Standard deviation 0.5296867563942403 %); -3.78% (PRVABC59, Concentration 99.01 uM, Number of replicates 2.0, Standard deviation 1.7504892738878128 %); -3.49% (PRVABC59, Concentration 198.0 uM, Number of replicates 2.0, Standard deviation 0.03026767496440153 %).

As for `O=Cc1ccc(N2CCC(C(=O)N[C@H]3Cc4ccc(Br)cc4C3)CC2)cc1`, the inhibition under setting [2] was 0.902%.

With `Cc1ccc(C)c(N2CCN(C(=O)c3cc(Cl)ccc3NS(=O)(=O)c3ccc(Oc4ccccc4Cl)cc3)CC2)c1`, the inhibition under setting [1] is 4.76%.

For the compound `O=C(c1cc(Cl)ccc1NS(=O)(=O)c1ccc(Oc2ccccc2Cl)cc1)N1CCC(O)(Cc2ccccn2)CC1`, the inhibition under setting [1] was 4.57%.

Take `Cc1cc(CO)c2cccc(NCCc3c(C)n[nH]c3C)c2n1`: the inhibition (PRVABC59, Concentration 49.95 uM, Number of replicates 2.0, Standard deviation 0.1462994662014392 %) stood at 10.8% and the inhibition (PRVABC59, Concentration 99.9 uM, Number of replicates 2.0, Standard deviation 0.8122149522265316 %) came out at 16.7%.

For `Cc1cccc(NC(=O)CNC(=O)C2CCN(c3ccc(C=O)cc3)CC2)c1C`, the inhibition under setting [2] is 21%.

For the compound `Nc1ccc(Cl)c2cccnc12`, the inhibition (PRVABC59, Concentration 99.9 uM, Number of replicates 2.0, Standard deviation 7.433905478836123 %) was -9.18%.

Turning to `CCOC(=O)[C@H]1CCCN(C(=O)c2cc(Cl)ccc2NS(=O)(=O)c2ccc(Oc3ccccc3Cl)cc2)C1`, the inhibition under setting [1] was found to be 14.8%.

With `Cc1nn(Cc2cccnc2F)cc1C1CCNCC1`, the inhibition runs as follows: (PRVABC59, Concentration 49.5 uM, Number of replicates 2.0, Standard deviation 6.869655819998887 %) -4.33%; (PRVABC59, Concentration 99.01 uM, Number of replicates 2.0, Standard deviation 4.318179977943179 %) -3.71%; (PRVABC59, Concentration 198.0 uM, Number of replicates 2.0, Standard deviation 4.43995469875831 %) 0.223%.

The inhibition is the drop in the measured response relative to a control, in per cent.
